The values that follow come from PubChem BioAssay AID463173 (ICCB-Longwood Screening Facility, Harvard Medical School, 2010).

Screen size: about 52,000 compounds; about 4,300 (8.3%) were called active. No stated cut-off is given here; in the data, active means survival mostly below about 52% (no sharp cut-off); inactive means mostly above about 56%. The list shows a part of the results.

The test system of the experiment is DeltatarO mutant. In words: growth inhibition of S. aureus wild type versus tarO mutant, primary screen, teichoic acid synthesis inhibitors, RN4220, OD600 (AID 463173). The following applies: OD600, 18 h, hits give low values, screened at 18.75 µg/mL (by protocol).
As for `COc1ccc(Cl)cc1C(=O)NCC(c1ccc(N(C)C)cc1)N1CCCC1` (configuration not stated), the survival is inactive: 99%.

As for `Cc1cc2ccccc2nc1SCCN1CCOCC1`, the survival was inactive: 94%.

For `Cc1ccc(C)c(NC(=O)Cn2c(=O)n(CCCS(=O)(=O)C3CCCCC3)c(=O)c3ccccc32)c1`, the survival is inactive: 91%.

For `O=C(Cn1c(-c2cccs2)cc2cc(Cl)ccc21)N1CCCCC1`, the survival is inactive: 83%.

On to `Cc1ccc(NC(=O)C2CCCN(S(=O)(=O)c3ccc4c(c3)CCCC(=O)N4)C2)cc1N(C)C` (configuration not stated), for which the survival was inactive: 72%.

Take `CN(C(=O)CSc1nc2ccc(NC(=O)c3cccs3)cc2s1)c1ccccc1`: the survival was inactive: 65%.

Consider `CCOc1ccc(NC(=O)CSc2nccn2C2CCCC2)cc1`, for which the survival was inactive: 89%.

On to `COc1ccc(-n2c(=O)c3c4c(sc3n(CC(=O)C(C)(C)C)c2=O)CCCC4)c(OC)c1`, for which the survival is inactive: 64%.

With `O=C(c1ccc(-c2cccc(C(F)(F)F)c2)o1)N1CCOCC1`, the survival is inactive: 84%.

With `CCc1ccc(CNC(=O)C2CCN(C(=O)c3ccc(-n4c(C)cc5ccccc54)s3)CC2)cc1`, the survival was inactive: 70%.

In the case of `COC(=O)c1cccc(CN2C(=O)SC(Nc3ccccc3C)C2=O)c1` (configuration not stated), the survival was inactive: 133%.

As for `Cc1ccc(CN2C(=O)CN(C3CCCCCC3)C(=O)C2c2ccc(F)cc2)cc1` (configuration not stated), the survival is active: 6%.

Regarding `N#Cc1cc2c(ccc3ccccc32)oc1=O`, the survival was inactive: 71%.

`Fc1ccc(-c2nnn3c2nc(NCc2ccccc2)c2ccccc23)cc1`: the survival was inactive: 104%.

As for `O=C1CN(C(=O)c2c(F)cccc2Cl)C(c2ccc(F)cc2)c2cc(Br)ccc2N1` (configuration not stated), the survival was active: 42%.

As to `Cn1c(=O)n(C)c2cc(N3CCOCC3)c(NS(=O)(=O)c3ccc(F)cc3)cc21`, the survival is inactive: 126%.

As to `Cc1ccc2nc(/C(C#N)=C/c3ccc(-c4ccc(C(=O)OC(C)C)cc4)o3)[nH]c2c1`, the survival is active: 36%.

For the compound `Cc1ccc2c(c1)c1c(c(=O)n(-c3ccccc3)c(=O)n1CC(=O)c1ccc(Cl)cc1)n2C`, the survival was inactive: 113%.

With `Cc1c(C(=O)Oc2ccc(Br)cc2)sc2ncn(Cc3ccccc3F)c(=O)c12`, the survival was inactive: 81%.

For `Cc1ccc(NC(=O)C(=O)NCC(c2ccc3c(c2)OCO3)N2CCN(C)CC2)cc1C` (configuration not stated), the survival was inactive: 68%.

Consider `COc1cc(NC(=O)Nc2c[nH]c(=O)[nH]c2=O)cc(OC)c1OC`, for which the survival is inactive: 88%.

Consider `CC(C)CCNC(=O)Cn1cc(S(=O)(=O)Cc2ccc(F)cc2)c2ccccc21`, for which the survival was inactive: 74%.

With `COc1cc(N)ncn1`, the survival is inactive: 95%.

As to `CCN(CC)S(=O)(=O)c1ccc2c(c1)c(=O)c(C(=O)N1CCN(c3ccccc3OC)CC1)cn2C`, the survival is inactive: 83%.

With `COc1ccc(C(=O)Nc2nc(-c3nnn(-c4cc(OC)ccc4OC)c3C)ns2)cc1`, the survival is inactive: 109%.

Turning to `Cc1ccc(OCc2cc(=O)n3c(-c4ccccc4)csc3n2)cc1`, the survival is inactive: 59%.

As for `O=C(Cn1nnc(-c2cccc(C(F)(F)F)c2)n1)NCc1ccc(F)cc1`, the survival was inactive: 77%.

For `Cc1cccc(N2C(=O)CN(C(C)C)C(=O)C2c2ccc(F)cc2)c1C` (configuration not stated), the survival is inactive: 74%.

As for `CCc1ccc(CNC(=O)c2cc3cc4ccc(OC)cc4nc3o2)cc1`, the survival is inactive: 83%.

Regarding `Cn1c(O)c(N=NC(=O)c2ccccc2)c2ccccc21`, the survival was inactive: 105%.

Consider `CCN(Cc1ccccc1)S(=O)(=O)c1ccc(N2CCCCS2(=O)=O)cc1`, for which the survival was inactive: 69%.

Take `CCCCNC(=O)c1cnc2c(-c3ccc(OCC)c(OCC)c3)c(C)nn2c1-c1ccccc1`: the survival was inactive: 73%.

Turning to `CCc1ccc2nc(N3CCC(C(=O)NCCC(C)C)CC3)sc2c1`, the survival was inactive: 144%.

Take `CC1CN(C(=O)CSCc2ccccc2)CC(C)O1` (configuration not stated): the survival was inactive: 73%.

As to `O=C(CCS(=O)(=O)c1cc2c(cc1Cl)NC(=O)CO2)NCc1ccccc1`, the survival is inactive: 106%.

In the case of `Cc1nc2ccc(NC(=O)C3CCCCC3)cc2c(=O)n1Cc1ccccc1`, the survival was inactive: 63%.

With `O=C(C1CCCCC1)N1CCN(C(=O)C2CCCCC2)CC1`, the survival is inactive: 96%.

Consider `CCCCOc1ccc(S(=O)(=O)n2nc(C)c(S(=O)(=O)N3CCCCCC3)c2C)cc1`, for which the survival is inactive: 78%.

On to `O=C1CCSC2(C(=O)N(Cc3ccccc3)c3ccccc32)N1c1ccccc1` (configuration not stated), for which the survival is inactive: 113%.

Consider `O=C(NCCCN1CCN(c2ccccc2F)CC1)c1sc2ncccc2c1-n1cccc1`, for which the survival was inactive: 92%.

As for `Cc1cc(OCC#N)nc(N)n1`, the survival was inactive: 110%.

With `CC(=O)N1c2ccc(S(=O)(=O)NCC3CCC(C(=O)Nc4cccc(C)c4)CC3)cc2CC1C` (configuration not stated), the survival was inactive: 62%.

In the case of `CCCC(=O)OC1=C(C(C)=O)N(Cc2ccccc2)S(=O)(=O)c2ccccc21`, the survival is inactive: 75%.

In the case of `Cc1cc(S(=O)(=O)NCCc2csc(-c3cccc(F)c3)n2)ccc1F`, the survival was inactive: 89%.

On to `CN(C(=O)CSc1nc2ncccc2o1)c1ccc(F)cc1`, for which the survival was inactive: 76%.

As to `O=C(CSc1nc2cc3ccccc3cc2[nH]1)Nc1cccc(C(F)(F)F)c1`, the survival was inactive: 74%.

In the case of `Cc1ccc2c(c1)C(C(=O)O)=Cc1ccccc1O2`, the survival is inactive: 106%.

Turning to `Cn1c(=O)c2c(ncn2CC(=O)N(CC(=O)NC2CCCCC2)Cc2ccccc2Cl)n(C)c1=O`, the survival is inactive: 77%.

For the compound `O=C(Nc1ccc(Cl)cc1)C1C2CCCCC21` (configuration not stated), the survival was inactive: 90%.

As to `CNS(=O)(=O)c1cn(CC(=O)Nc2ccc(OC)c(Cl)c2)cc1S(=O)(=O)NC`, the survival is inactive: 74%.

On to `COc1ccccc1N1CCN(S(=O)(=O)c2ccc(-c3cc(C(F)(F)F)on3)s2)CC1`, for which the survival was inactive: 73%.

Turning to `COc1cccc(N2C(=O)C(CC(=O)Nc3cccc(F)c3)N(C(C)C)C2=O)c1` (configuration not stated), the survival was inactive: 94%.

For the compound `Cc1cc(N2CCCCC2)nc2ccc(NC(=O)c3ccc(F)cc3)cc12`, the survival is inactive: 51%.

Take `COCCNC(=O)CSc1nc(-c2ccc(F)cc2)[nH]c1-c1ccc(Cl)cc1`: the survival was inactive: 71%.

In the case of `CC(CNC(=O)Cn1ncc2c3ccccc3n(Cc3cccc(Cl)c3)c2c1=O)c1ccccc1` (configuration not stated), the survival is inactive: 95%.

Turning to `O=C(COc1ccccc1)Nc1ccc(OCc2cc(=O)n3ccsc3n2)cc1`, the survival was inactive: 97%.

Take `COc1ccc(OC)c(C2CC(=O)N(c3cccc(C)c3)C3=C2C(=O)OC3)c1` (configuration not stated): the survival was inactive: 163%.

Turning to `CCOc1ccc(C(=O)Nc2ccc(S(=O)(=O)N(Cc3ccccc3)c3ccccc3)cc2)cc1`, the survival was inactive: 73%.

Consider `O=C(c1ccco1)N1CCN(c2ncnc3sc4c(c23)CCC4)CC1`, for which the survival was active: 36%.

With `CCN1C(=O)/C(=C2\C=Cc3ccccc3N2CC)SC1=S`, the survival was inactive: 77%.

Take `Cc1ccc(C)c(N2CCN(c3ncnc4onc(C)c34)CC2)c1`: the survival is inactive: 90%.

Regarding `COCc1cc(C)nc2sc3c(=O)n(-c4cc(C)ccc4C)nnc3c12`, the survival is inactive: 87%.

For `CCOC(=O)c1ccccc1NC(=O)N1CCN2CCCCC2C1` (configuration not stated), the survival is inactive: 73%.

For the compound `O=C(Cc1ccccc1)N/N=C/c1cccs1`, the survival was inactive: 88%.

In the case of `COc1ccccc1CCNC(=O)Cc1c(C)c2ccc(O)cc2oc1=O`, the survival is inactive: 57%.

On to `CC(=O)Nc1nonc1-c1nnc(SCC(=O)Nc2cc(C)ccc2C)n1-c1ccccc1`, for which the survival is inactive: 104%.

`CCOC(=O)c1cc(OC(=O)c2cccc(C)c2)n(-c2ccccc2)n1`: the survival was inactive: 59%.

As for `CS(=O)(=O)N1CCN(c2ccccc2F)CC1`, the survival is inactive: 80%.

As to `COc1cccc(CNc2ncnc3onc(-c4ccc(F)cc4)c23)c1`, the survival was inactive: 71%.

`COCc1cc(C)nc2sc3c(c12)NC(c1ccc(NC(C)=O)cc1)N(c1ccc(C)cc1)C3=O` (configuration not stated): the survival was inactive: 67%.

`O=c1c2ccccc2n(Cc2cccc(Cl)c2)c(=O)n1CCc1ccccc1`: the survival was inactive: 65%.

Take `CC(=O)NCCc1nc2ccccc2n1CCCCOc1ccc(Cl)cc1`: the survival was inactive: 61%.

In the case of `CCN(c1ccccc1)c1nnc(NC(=O)Nc2cccc(C(F)(F)F)c2)s1`, the survival was inactive: 88%.

As to `CCc1ccc(NC(=O)c2cc3ccccn3n2)cc1`, the survival is inactive: 99%.

For the compound `Cc1nc2cc(C(F)(F)F)ccc2n1C1CCN(C(=O)C2CC2)CC1`, the survival was inactive: 100%.

`Cc1cc(C)c2c(CC(=O)Nc3nnc(C(C)C)s3)coc2c1`: the survival is inactive: 75%.

Consider `Fc1ccccc1CNCCCSc1nnnn1-c1ccccc1`, for which the survival was inactive: 68%.

As to `O=C(CSc1nc(=O)[nH]c2c1CCCC2)Nc1cc(C(F)(F)F)ccc1Cl`, the survival is inactive: 91%.

As to `COc1ccc(-c2nnc(Nc3ccc(OCC(N)=O)cc3)c3ccccc23)cc1`, the survival was inactive: 69%.

With `Cc1c(C(=O)NN)c2cc(O)ccc2n1C`, the survival is inactive: 78%.

As for `Cc1cc(C)n(-c2nc3ccccc3nc2Nc2cccc(C(F)(F)F)c2)n1`, the survival was inactive: 75%.

As for `COc1ccc(C2C(C(=O)Nc3ccccc3)=C(C)Nc3nc(-c4ccccc4)nn32)cc1OC` (configuration not stated), the survival is inactive: 85%.

In the case of `COc1ccc(OC)c(-c2nc(Nc3ccccc3C)sc2CC(=O)O)c1`, the survival was inactive: 89%.

Turning to `CCOC(=O)c1ccccc1NC(=O)CSc1ccc(-c2sc(-c3ccccc3)nc2C)nn1`, the survival is inactive: 34%.

Take `COc1ccc(CNc2nc3c(S(=O)(=O)c4ccccc4)nnn3c3ccc(Cl)cc23)cc1`: the survival was inactive: 73%.

For the compound `CCOc1ccc(Nc2oc(/C=C/c3ccc(F)cc3)nc2C#N)cc1`, the survival was inactive: 102%.

In the case of `Cc1ccc(NC(=O)C(=O)NCC(c2cccnc2)N2CCN(C)CC2)cc1C` (configuration not stated), the survival was inactive: 79%.

Take `COc1ccc(NC(=O)c2oc3c(c2C)-c2nn(Cc4c(F)cccc4Cl)cc2CC3)c(OC)c1`: the survival was inactive: 72%.

In the case of `Fc1ccc(-c2cc(-c3nc(-c4cccc(Cl)c4)no3)[nH]n2)cc1`, the survival was inactive: 88%.

As for `COc1cc(OC)c(OC)cc1CN1CCc2nc(N3CCN(c4ncccn4)CC3)ncc2C1`, the survival was inactive: 96%.

`CC1CCC(NC(=O)c2ccc3c(c2)N(Cc2cccc(F)c2)C(=O)c2ccccc2S3)CC1` (configuration not stated): the survival was inactive: 120%.

Consider `Cc1ccc(C)c(NC(=O)C(C)n2c(=O)cc(C(F)(F)F)c3c(C)nn(C)c32)c1` (configuration not stated), for which the survival is inactive: 89%.
